Some of the results follow. Values were computed here from the reads of four pooled replicates and scatter widely.
molecular target: T1, Pho4 (S. cerevisiae) (UniProt P07270); assay: relative binding free energy (BET-seq); higher = weaker binding; conditions: reference: library average
T1 sequence: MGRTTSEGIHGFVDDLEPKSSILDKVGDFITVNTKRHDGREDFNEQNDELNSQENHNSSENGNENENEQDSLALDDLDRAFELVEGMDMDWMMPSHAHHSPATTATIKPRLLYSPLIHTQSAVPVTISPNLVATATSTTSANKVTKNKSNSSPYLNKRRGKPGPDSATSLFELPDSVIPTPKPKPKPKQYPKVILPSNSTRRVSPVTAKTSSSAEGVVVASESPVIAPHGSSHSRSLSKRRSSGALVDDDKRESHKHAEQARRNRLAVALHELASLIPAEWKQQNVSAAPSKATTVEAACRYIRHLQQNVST

Sequence	relative binding free energy [kcal/mol]
GGGCACACGTGTGAGT	0.19
ATTAGCACGTGGGAGG	-0.16
GGCTACACGTGTAATG	0.27
GGGGTCACGTGTGACA	0.11
CGTTGCACGTGGCTGG	-0.1
TAAATCACGTGATATT	0.2
GGGCACACGTGTTTTG	0.19
GGAGTCACGTGCGCGG	0
ATAGGCACGTGCAGGT	-0.22
GTTGACACGTGAAGCT	0.25
TGGTTCACGTGGGTGT	0.22
GCCTACACGTGGGTGG	0.09
TGTTTCACGTGACAAT	0.25
CACGTCACGTGTAGGT	0.13
TTTGGCACGTGGGCTC	-0.25
TATACCACGTGGGGGG	-0.41
GGATTCACGTGGAGCG	0.4
GTTGTCACGTGGTCTA	0.11
CAGTGCACGTGAGGGT	0.19
GGTCTCACGTGATGGT	0.37
CAATGCACGTGGGTGT	-0.05
GTTATCACGTGTATGG	0.12
TTAGTCACGTGATTAA	0.1
AAGTACACGTGGTGCG	-0.13
AAAGGCACGTGAAGGT	0.12

Sequence	relative binding free energy [kcal/mol]
TTGGGCACGTGGCTGC	-0.18
TTAGACACGTGGTCAT	-0.1
TGTGACACGTGTGCAG	0.04
CGGGTCACGTGTACGG	0.16
AGGGACACGTGGTAGC	-0.02
TGGCTCACGTGAAATG	0.35
GTGGCCACGTGGGGGG	-0.08
TGCGTCACGTGATTTG	0.24
GGAAGCACGTGAGGAC	0.27
ATTGTCACGTGGACGG	0.1
TCGTACACGTGTTTGG	0.07
TAAGGCACGTGTATGA	-0.17
GTGAGCACGTGTAGGT	-0.05
ATTTGCACGTGGCGTG	0
AGATTCACGTGGTCAT	0.13
GAAGTCACGTGTTAGG	0.26
TTATTCACGTGGATGT	0.32
GTGTTCACGTGTGTTG	0.33
TATTACACGTGATTAT	0.13
CGTGGCACGTGTGGCT	-0.02
TTGGGCACGTGCGTCG	-0.16
ATAATCACGTGCGGGG	0.1
TTGTGCACGTGTACGA	0.1
TTAGGCACGTGGTATC	-0.2
AGGAGCACGTGTCAGG	-0.07

Sequence	relative binding free energy [kcal/mol]
TTCGGCACGTGGGGAG	-0.25
GAATTCACGTGAGGGG	0.43
GAAATCACGTGTTGGG	0.21
TGTGGCACGTGCAATG	-0.21
TACGTCACGTGCTGGT	-0.08
TTTTACACGTGTTAGA	0.04
GGGGTCACGTGGGTAT	0.09
GTAGTCACGTGAATTT	0.29
GCTGACACGTGGGGGT	-0.02
GTATTCACGTGATTGA	0.31
ACGGTCACGTGGCGTG	-0.09
GTGTGCACGTGTTTGT	-0.02
TTTGCCACGTGCCGGT	-0.01
ATTGACACGTGGAGTG	0.05
TTCTTCACGTGGTGTC	0.37
AGGTTCACGTGGACGG	0.19
GGGGGCACGTGGCATT	-0.2
GTGTTCACGTGCGGTA	0.19
GGGGTCACGTGAGTTC	0.46
TGGCACACGTGAGGAT	0.37
TTTTTCACGTGGTCAG	0.24
AGTAGCACGTGGTTAA	-0.24
GGTGGCACGTGAGCCG	0.12
CGCTCCACGTGTTGGG	0.28
GAAGGCACGTGCGGAG	-0.19

Sequence	relative binding free energy [kcal/mol]
GGTGTCACGTGACTGA	0.2
CTGGTCACGTGGGACG	-0.06
AGATTCACGTGAGTAT	0.28
TGTTTCACGTGTGACT	0.23
GTTTTCACGTGGATTA	0.36
GGATACACGTGTGGGC	0.14
GTAGTCACGTGGCAAG	0.05
AGTCACACGTGGGGAA	0.13
GGTTTCACGTGCATGT	0.3
GATTGCACGTGTTGAG	0.1
ATATTCACGTGTTCGA	0.14
TGACGCACGTGTGTGG	-0.2
ATAAGCACGTGAATGG	0.18
AGGCGCACGTGGGTGT	-0.24
TTTTTCACGTGTGCGA	0.31
TGAGGCACGTGTATGA	-0.14
TCTTGCACGTGGTATG	-0.18
GGGCTCACGTGGTCCG	0.38
ATGGTCACGTGTGACT	0.25
CGGTGCACGTGTGGCG	-0.17
GGTTCCACGTGGTTAA	0.15
GTAATCACGTGATGAG	0.19
AGCGTCACGTGTTGGC	0.12
CTTGTCACGTGGTCTT	0.13
GGCGTCACGTGTGCTT	0.17

Sequence	relative binding free energy [kcal/mol]
CAATGCACGTGGCTTG	0.01
TGGCACACGTGGATTT	0.13
TCGTTCACGTGGTTTG	0.23
GATTGCACGTGCTTTT	0.09
ATGCGCACGTGGGGTA	-0.27
TACGTCACGTGATATT	0.22
CAGTGCACGTGGGCGG	-0.3
CGCATCACGTGGTGGT	0.1
AGTTTCACGTGTTATC	0.25
TGAAACACGTGGTTTG	-0.14
AGGATCACGTGTTGTA	0.1
GGAGGCACGTGATGGG	0.03
ATTTGCACGTGTTGGT	0.08
ACAGGCACGTGGGCGG	-0.25
ATTGACACGTGTGCGG	-0.04
AAGGACACGTGACGGG	0.1
ATGTTCACGTGTCTAG	0.18
TATTTCACGTGTGTTA	0.27
TCGGTCACGTGTGGTG	0.09
AGGGTCACGTGAGGCT	0.28
AGTTACACGTGTTGGT	0.12
TATTGCACGTGATACG	0.07
AGTCGCACGTGTTATT	-0.04
TAGAGCACGTGGTGTC	-0.16
AAGGGCACGTGGTCGT	-0.37

Sequence	relative binding free energy [kcal/mol]
TGTAACACGTGAATGT	0.28
ATGGTCACGTGCCAGG	0.06
TAGTGCACGTGTCGGC	0
GGGCACACGTGGTTCG	0.05
CATGTCACGTGTCGGT	0.11
TTGTACACGTGAGGTC	0.21
GTGTTCACGTGCGGTT	0.29
TCATGCACGTGGGGTG	-0.16
ATGGTCACGTGAGATT	0.31
GTGATCACGTGAGGGT	0.33
TATGCCACGTGCTGGG	-0.08
GTGGCCACGTGTCGTG	-0.14
TGGGGCACGTGGGTGA	-0.21
TGGGACACGTGGCCGT	-0.14
AGAGGCACGTGCTGTA	-0.12
TTGTTCACGTGCTGTG	0.19
AGGTGCACGTGCGCGT	-0.29
AAAGTCACGTGGTATT	0.15
TACAACACGTGTGGTT	0.13
AGATACACGTGAGTTG	0.01
AGGTGCACGTGGGAGC	-0.16

From the BET-seq Pho4 binding data (Le et al. 2018)
